According to article PMC4615246 (Nucleus, 2015):

Experiments:
LacI-CFP-Nup155 R391H = target: T1, LacI-CFP-Nup155 R391H (human, UniProt O75694 1-1391, R391H); experiment: LacI/LacO array recruitment in cells
T1 sequence: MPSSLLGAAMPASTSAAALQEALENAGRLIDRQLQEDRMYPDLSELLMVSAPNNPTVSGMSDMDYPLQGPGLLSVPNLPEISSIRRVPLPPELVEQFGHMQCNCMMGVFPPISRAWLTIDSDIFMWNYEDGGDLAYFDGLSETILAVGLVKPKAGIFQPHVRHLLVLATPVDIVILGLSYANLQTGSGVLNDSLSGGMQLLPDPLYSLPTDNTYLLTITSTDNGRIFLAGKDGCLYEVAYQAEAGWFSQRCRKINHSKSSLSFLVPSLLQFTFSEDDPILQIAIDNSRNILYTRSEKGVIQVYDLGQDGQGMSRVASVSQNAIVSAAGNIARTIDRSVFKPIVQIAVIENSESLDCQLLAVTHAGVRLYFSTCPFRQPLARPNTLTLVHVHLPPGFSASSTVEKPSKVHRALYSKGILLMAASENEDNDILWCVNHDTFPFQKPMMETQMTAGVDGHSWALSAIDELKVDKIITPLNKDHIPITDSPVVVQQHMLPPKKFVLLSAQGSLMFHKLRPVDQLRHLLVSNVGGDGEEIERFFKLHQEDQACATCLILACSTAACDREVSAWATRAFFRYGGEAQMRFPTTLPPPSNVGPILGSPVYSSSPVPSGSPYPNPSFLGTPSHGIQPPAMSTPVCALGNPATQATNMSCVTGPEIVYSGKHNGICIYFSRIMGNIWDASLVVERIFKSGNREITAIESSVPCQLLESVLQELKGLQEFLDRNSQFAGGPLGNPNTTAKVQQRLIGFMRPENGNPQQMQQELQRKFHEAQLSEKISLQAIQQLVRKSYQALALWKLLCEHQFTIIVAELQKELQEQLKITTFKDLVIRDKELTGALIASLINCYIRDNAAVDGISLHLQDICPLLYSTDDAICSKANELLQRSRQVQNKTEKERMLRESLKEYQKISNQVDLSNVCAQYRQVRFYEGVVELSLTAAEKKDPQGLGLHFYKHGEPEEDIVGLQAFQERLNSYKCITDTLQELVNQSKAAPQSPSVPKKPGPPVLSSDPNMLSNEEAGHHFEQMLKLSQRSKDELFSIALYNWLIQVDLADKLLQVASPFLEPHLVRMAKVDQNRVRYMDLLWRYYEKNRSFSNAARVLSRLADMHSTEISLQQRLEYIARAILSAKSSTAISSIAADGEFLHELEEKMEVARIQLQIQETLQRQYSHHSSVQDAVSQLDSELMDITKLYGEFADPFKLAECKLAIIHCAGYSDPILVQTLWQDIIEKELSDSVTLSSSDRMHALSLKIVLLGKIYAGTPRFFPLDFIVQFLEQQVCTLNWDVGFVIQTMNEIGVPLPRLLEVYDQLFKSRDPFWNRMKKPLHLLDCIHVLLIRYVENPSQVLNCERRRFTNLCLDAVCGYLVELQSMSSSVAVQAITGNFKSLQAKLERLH

LacI-CFP-Nup153 = target: T2, LacI-CFP-Nup153 (human, UniProt P49790 1-1475); experiment: LacI/LacO array recruitment in cells
T2 sequence: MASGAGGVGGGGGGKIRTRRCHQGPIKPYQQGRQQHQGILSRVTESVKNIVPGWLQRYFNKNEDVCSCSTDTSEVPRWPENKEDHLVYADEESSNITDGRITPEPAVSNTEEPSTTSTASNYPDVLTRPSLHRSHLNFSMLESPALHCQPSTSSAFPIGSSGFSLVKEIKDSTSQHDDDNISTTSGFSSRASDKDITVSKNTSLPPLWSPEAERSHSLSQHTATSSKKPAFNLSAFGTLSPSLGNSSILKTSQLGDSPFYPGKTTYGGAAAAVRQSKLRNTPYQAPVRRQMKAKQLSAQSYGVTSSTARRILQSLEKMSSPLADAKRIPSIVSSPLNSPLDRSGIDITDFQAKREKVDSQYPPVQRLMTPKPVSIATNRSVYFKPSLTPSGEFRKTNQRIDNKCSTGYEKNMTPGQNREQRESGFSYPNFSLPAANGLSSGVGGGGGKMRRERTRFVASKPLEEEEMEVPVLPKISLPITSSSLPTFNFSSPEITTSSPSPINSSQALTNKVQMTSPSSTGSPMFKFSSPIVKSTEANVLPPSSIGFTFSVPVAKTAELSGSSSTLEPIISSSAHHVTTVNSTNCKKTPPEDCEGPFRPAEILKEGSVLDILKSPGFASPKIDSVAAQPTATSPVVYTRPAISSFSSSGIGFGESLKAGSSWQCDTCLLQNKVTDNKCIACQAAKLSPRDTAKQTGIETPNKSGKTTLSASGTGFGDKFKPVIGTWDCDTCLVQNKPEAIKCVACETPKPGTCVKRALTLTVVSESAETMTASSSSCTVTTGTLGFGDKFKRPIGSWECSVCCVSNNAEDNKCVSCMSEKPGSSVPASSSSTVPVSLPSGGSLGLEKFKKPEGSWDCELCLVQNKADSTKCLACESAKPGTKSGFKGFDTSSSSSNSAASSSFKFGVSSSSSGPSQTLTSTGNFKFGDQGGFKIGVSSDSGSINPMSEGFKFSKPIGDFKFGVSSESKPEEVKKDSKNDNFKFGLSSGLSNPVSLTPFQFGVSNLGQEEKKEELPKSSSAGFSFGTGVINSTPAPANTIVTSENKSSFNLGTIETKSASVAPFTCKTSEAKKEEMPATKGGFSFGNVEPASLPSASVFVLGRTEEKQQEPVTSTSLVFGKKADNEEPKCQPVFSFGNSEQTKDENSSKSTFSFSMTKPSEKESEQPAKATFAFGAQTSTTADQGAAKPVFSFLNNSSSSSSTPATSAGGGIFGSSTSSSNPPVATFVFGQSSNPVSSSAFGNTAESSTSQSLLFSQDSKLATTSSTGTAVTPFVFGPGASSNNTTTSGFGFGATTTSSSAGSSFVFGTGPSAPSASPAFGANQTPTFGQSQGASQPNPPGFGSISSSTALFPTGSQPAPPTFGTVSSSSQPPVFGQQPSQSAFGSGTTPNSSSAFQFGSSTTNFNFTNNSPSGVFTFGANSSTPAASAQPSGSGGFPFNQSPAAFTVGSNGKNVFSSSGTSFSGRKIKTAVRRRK

B1: Pom121 (endogenous) (natural protein)
chain: MSPAAAAAGAGERRRPIASVRDGRGRGCGGPARAVLLGLSLVGLLLYLVPAAAALAWLTVGATAAWWGLSREPRGSRPLSSFVRKARHRRPLSSFVRKARHRRTLFASPLAKSTANGNLLEPRTLLEGPDPAELLLMGSYLGKPGPPQPAAAPEGQDLRDRPGRRPPARPAPRSPPPRSPPPRSPPPSPPTHRAHHVYPSLPTPLLRPSRRPSPRDCGTLPNRFVITPRRRYPIHQAQYSCLGVLPTVCWNGYHKKAVLSPRNSR[about 450 residues not shown]KQSFLFGTQNTSPSSPAAPAASSAPPMFKPIFTAPPKSEKEGPTPPGPSVTATAPSSSSLPTTTSTTAPTFQPVFSSMGPPASVPLPAPFFKQTTTPATAPTTTAPLFTGLASATSAVAPITSASPSTDSASKPAFGFGINSVSSSSVSTTTSTATAASQPFLFGAPQASAASFTPAMGSIFQFGKPPALPTTTTVTTFSQSLHTAVPTATSSSAADFSGFGSTLATSAPATSSQPTLTFSNTSTPTFNIPFGSSAKSPLPSYPGANPQPAFGAAEGQPPGAAKPALAPSFGSSFTFGNSAAPAAAPTPAPPSMIKVVPAYVPTPIHPIFGGATHSAFGLKATASAFGAPASSQPAFGGSTAVFFGAATSSGFGATTQTASSGSSSSVFGSTTPSPFTFGGSAAPAGSGSFGINVATPGSSTTTGAFSFGAGQSGSTATSTPFAGGLGQNALGTTGQSTPFAFNVSSTTESKPVFGGTATPTFGLNTPAPGVGTSGSSLSFGASSAPAQGFVGVAPFGSAALSFSIGAGSKTPGARQRLQARRQHTRKK
- percent of transfected cells showing colocalization (LacI-CFP-Nup155 R391H): ~8%
- percent of transfected cells showing colocalization (LacI-CFP-Nup153): 31%
